In the supplement of paper PMC4604168 (melanoma cell lines):
The other results are listed elsewhere or left out. Single values are uncertain, as repeats are few or missing.

Columns and labels:
Experiment in all cases: cell count relative to DMSO control; melanoma cells; higher = more viable cells
Details in all cases: library dose: low library concentration; 72 h
[1] = tested on: WM115
[2] = tested on: WM1716
[3] = tested on: WM1745
[4] = tested on: WM3526
[5] = tested on: WM3619
[6] = tested on: WM451Lu
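Further: cell number obtained by counting DAPI-stained nuclei in high-throughput microscope images with image analysis software, screen run in 1,536-well plates.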

SMILES	cell count [1] [%]	cell count [2] [%]	cell count [3] [%]	cell count [4] [%]	cell count [5] [%]	cell count [6] [%]
CC(C)C[C@H](NC(=O)[C@H](Cc1ccccc1)NC(=O)c1cnccn1)B(O)O [Bortezomib] + C[C@]1(c2nc3c(C(N)=O)cccc3[nH]2)CCCN1 [Veliparib] (first compound 0.001 µM, partner dose 1.4 µM)	74.3	50.3	49.6	102	13.5	75.6
COc1ccc(C2=N[C@@H](c3ccc(Cl)cc3)[C@@H](c3ccc(Cl)cc3)N2C(=O)N2CCNC(=O)C2)c(OC(C)C)c1 [Nutlin-3] + O=C(O)c1ccc2c(c1)nc(Nc1cccc(Cl)c1)c1ccncc12 [CX4945] (first compound 0.1 µM, partner dose 0.4 µM)	88.2	77.1	84.9	84.7	99.1	98.5
COc1ccc(C2=N[C@@H](c3ccc(Cl)cc3)[C@@H](c3ccc(Cl)cc3)N2C(=O)N2CCNC(=O)C2)c(OC(C)C)c1 [Nutlin-3] + CCCCCCCCCCCC1=C(O)C(=O)C=C(O)C1=O [Embelin] (first compound 0.1 µM, partner dose 1.2 µM)	100	78.4	106	106	124	125
Cn1c(=O)n(-c2ccc(C(C)(C)C#N)cc2)c2c3cc(-c4cnc5ccccc5c4)ccc3ncc21 + Cn1cncc1[C@@](N)(c1ccc(Cl)cc1)c1ccc2c(c1)c(-c1cccc(Cl)c1)cc(=O)n2C [tipifarnib] (first compound 0.004 µM, partner dose 0.01 µM)	79.3	66.7	84.5	85.7	81.6	81.3
Cc1cn(-c2cc(NC(=O)c3ccc(C)c(Nc4nccc(-c5cccnc5)n4)c3)cc(C(F)(F)F)c2)cn1 [nilotinib] + O=S(=O)(c1ccccc1)N(CC(F)(F)F)c1ccc(C(O)(C(F)(F)F)C(F)(F)F)cc1 [T0901317] (first compound 0.2 µM, partner dose 1.4 µM)	104	100	75.3	81.7	92.3	101
COc1ccc(C2=N[C@@H](c3ccc(Cl)cc3)[C@@H](c3ccc(Cl)cc3)N2C(=O)N2CCNC(=O)C2)c(OC(C)C)c1 [Nutlin-3] + C#Cc1cccc(Nc2ncnc3cc(OCCOC)c(OCCOC)cc23)c1 [erlotinib] (first compound 0.1 µM, partner dose 0.8 µM)	97.2	100	78.4	107	91.2	113
Cn1c(=O)n(-c2ccc(C(C)(C)C#N)cc2)c2c3cc(-c4cnc5ccccc5c4)ccc3ncc21 + OCCn1cc(-c2cnc3nnn(Cc4ccc5ncccc5c4)c3n2)cn1 [PF04217903] (first compound 0.004 µM, partner dose 1 µM)	97.2	97.9	106	99.2	89.3	104
Cc1cn(-c2cc(NC(=O)c3ccc(C)c(Nc4nccc(-c5cccnc5)n4)c3)cc(C(F)(F)F)c2)cn1 [nilotinib] + C=CCNC1=C2C[C@@H](C)C[C@H](OC)[C@H](O)[C@@H](C)/C=C(\C)[C@H](OC(N)=O)[C@@H](OC)/C=C\C=C(/C)C(=O)NC(=CC1=O)C2=O [Tanespimycin] (first compound 0.2 µM, partner dose 0.002 µM)	97.9	97.4	86.2	117	91.3	123
Cc1cn(-c2cc(NC(=O)c3ccc(C)c(Nc4nccc(-c5cccnc5)n4)c3)cc(C(F)(F)F)c2)cn1 [nilotinib] + Oc1nc(-c2ccc(C(F)(F)F)cc2)nc2c1CSCC2 [XAV939] (first compound 0.2 µM, partner dose 2 µM)	107	66.6	76	113	86.2	110
Cc1cc(Nc2cc(N3CCN(C)CC3)nc(/C=C/c3ccccc3)n2)n[nH]1 + NC1(c2ccc(-c3nc4ccn5c(=O)[nH]nc5c4cc3-c3ccccc3)cc2)CCC1 [MK2206] (first compound 0.04 µM, partner dose 0.4 µM)	79.5	87.8	77.6	71.4	85.5	88.2
Cc1cc(Nc2cc(N3CCN(C)CC3)nc(/C=C/c3ccccc3)n2)n[nH]1 + COCC[n+]1c2c(n(Cc3cnccn3)c1C)C(=O)c1ccccc1C2=O [YM155] (first compound 0.04 µM, partner dose 0.0004 µM)	93.7	89.9	87.1	98.1	105	80.5
COc1ccc(C2=N[C@@H](c3ccc(Cl)cc3)[C@@H](c3ccc(Cl)cc3)N2C(=O)N2CCNC(=O)C2)c(OC(C)C)c1 [Nutlin-3] + CC(C)(C)c1cnc(CSc2cnc(NC(=O)C3CCNCC3)s2)o1 [SNS-032] (first compound 0.1 µM, partner dose 0.01 µM)	82.2	78	84.5	120	87.3	74.9
CC(C)C[C@H](NC(=O)[C@H](Cc1ccccc1)NC(=O)c1cnccn1)B(O)O [Bortezomib] + CCN(CC)CCCCNc1ncc2cc(-c3cc(OC)cc(OC)c3)c(NC(=O)NC(C)(C)C)nc2n1 [PD173074] (first compound 0.001 µM, partner dose 0.1 µM)	88.6	42	74.6	94.8	14.5	88.9
CC(C)C[C@H](NC(=O)[C@H](Cc1ccccc1)NC(=O)c1cnccn1)B(O)O [Bortezomib] + c1cc(-c2cnn3cc(-c4ccc(OCCN5CCCCC5)cc4)cnc23)ccn1 [Dorsomorphin] (first compound 0.001 µM, partner dose 0.4 µM)	88.1	28.2	58.7	93.8	15.7	83.8
COc1ccc(C2=N[C@@H](c3ccc(Cl)cc3)[C@@H](c3ccc(Cl)cc3)N2C(=O)N2CCNC(=O)C2)c(OC(C)C)c1 [Nutlin-3] + O=C(Nc1cccc(Cl)c1)Nc1ncc(CCNc2ncnc3ccsc23)s1 [SNS314] (first compound 0.1 µM, partner dose 0.0008 µM)	61.6	104	88.9	99.3	84.4	86.8
Cc1cn(-c2cc(NC(=O)c3ccc(C)c(Nc4nccc(-c5cccnc5)n4)c3)cc(C(F)(F)F)c2)cn1 [nilotinib] + COc1ccc(-c2ccc3c(N4CCOCC4)nc(N4C[C@@H](C)O[C@@H](C)C4)nc3n2)cc1CO [KU0063794] (first compound 0.2 µM, partner dose 0.02 µM)	94.5	113	82.2	89.5	93	104
Cc1cn(-c2cc(NC(=O)c3ccc(C)c(Nc4nccc(-c5cccnc5)n4)c3)cc(C(F)(F)F)c2)cn1 [nilotinib] + Nc1ccn([C@@H]2O[C@H](CO)[C@@H](O)C2(F)F)c(=O)n1 [gemcitabine] (first compound 0.2 µM, partner dose 0.0004 µM)	111	97	86.5	89.8	95.9	101
COc1ccc(C2=N[C@@H](c3ccc(Cl)cc3)[C@@H](c3ccc(Cl)cc3)N2C(=O)N2CCNC(=O)C2)c(OC(C)C)c1 [Nutlin-3] + Cc1ccc(NC(=O)c2cccc(N(C)C)c2)cc1NC(=O)c1ccc(O)cc1 [ZM336372] (first compound 0.1 µM, partner dose 2 µM)	91.4	96.3	90.5	76.4	91.2	90.5
Cn1c(=O)n(-c2ccc(C(C)(C)C#N)cc2)c2c3cc(-c4cnc5ccccc5c4)ccc3ncc21 + OCc1c[nH]c2ccccc12 [Indole-3-carbinol] (first compound 0.004 µM, partner dose 0.8 µM)	96	98	104	87.7	78.6	101
CC(C)C[C@H](NC(=O)[C@H](Cc1ccccc1)NC(=O)c1cnccn1)B(O)O [Bortezomib] + CN(C)S(=O)(=O)c1ccc2c(c1)/C(=C/c1cc3c([nH]1)CCCC3)C(=O)N2 [SU6656] (first compound 0.001 µM, partner dose 0.4 µM)	70.8	33.8	47.8	133	18.8	102
COc1ccc(C2=N[C@@H](c3ccc(Cl)cc3)[C@@H](c3ccc(Cl)cc3)N2C(=O)N2CCNC(=O)C2)c(OC(C)C)c1 [Nutlin-3] + CO[C@@H]1[C@H](N(C)C(=O)c2ccccc2)C[C@H]2O[C@]1(C)n1c3ccccc3c3c4c(c5c6ccccc6n2c5c31)C(=O)NC4 [Midostaurin] (first compound 0.1 µM, partner dose 0.08 µM)	78.9	70.5	82.1	92.5	67.1	94.2
Cc1cc(Nc2cc(N3CCN(C)CC3)nc(/C=C/c3ccccc3)n2)n[nH]1 + CCN(CC)CCCCNc1ncc2cc(-c3cc(OC)cc(OC)c3)c(NC(=O)NC(C)(C)C)nc2n1 [PD173074] (first compound 0.04 µM, partner dose 0.1 µM)	98.5	111	95.3	113	110	95.6
Cn1c(=O)n(-c2ccc(C(C)(C)C#N)cc2)c2c3cc(-c4cnc5ccccc5c4)ccc3ncc21 + O=C(O)C(=O)Nc1sc2c(c1C(=O)O)CCNC2 [TCS401] (first compound 0.004 µM, partner dose 1.66667 µM)	84.9	92.6	92.1	78.6	119	96.6
CC(C)C[C@H](NC(=O)[C@H](Cc1ccccc1)NC(=O)c1cnccn1)B(O)O [Bortezomib] + O=C(Nc1ccccc1)c1cc([N+](=O)[O-])ccc1Cl [GW9662] (first compound 0.001 µM, partner dose 2 µM)	91.2	32.7	58.2	90.9	38.8	122
